Source: PubChem BioAssay AID686978 (National Center for Advancing Translational Sciences (NCATS), 2013)
Among all 420,000 compounds or so, about 64,000 (15%) were called active. This list was built around the results that the source calls inconclusive (neither active nor inactive); the mix of calls is not that of the screen. The call rests on the fitted dose curve; in most records, active means well fitted inhibition curve with a large enough effect; inconclusive means small, poorly fitted or top-dose-only effect; inactive means flat fitted curve, though single readings scatter. Potencies of inconclusive entries are left out as doubtful fits.
On the % scale 0 is the no-effect control and ±100 the full control effect; potency means the concentration at half of the fitted maximal effect; tags describe the fitted curve by direction and shape.

Assay: qHTS for Inhibitors of human tyrosyl-DNA phosphodiesterase 1 (TDP1): qHTS in cells in absence of CPT; further: nearly all actives have a fitted effect of over 55% in size
Details: DT40 Tdp1-/- hTDP1 cells, no CPT, ATP luminescence, 48 h; activity change, negative = growth inhibition: at 46.2 µM (top of the series) unless noted
In short: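 Chicken DT40 Tdp1-/- cells stably complemented with human TDP1 were seeded at 400 cells/well with DMSO in place of 20 nM camptothecin. After compound pinning, cells grew at least 48 hr at 37 °C; viability read by CellTiter-Glo luminescence.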
In the case of `COc1ccc(SC[C@H](Cc2ccccc2)N2CCN(C)CCC2=O)cc1`, the Potency is reported as inconclusive [inhibitor, partial curve].
For `CCOC(=O)c1ccc(NC(=O)c2cc(=O)c3cc(CC)ccc3o2)cc1`, the “activity change, negative = growth inhibition” value was inactive: -15.1%.
With `O=C(CCC(=O)Nc1ccc(F)cc1)N/N=C/c1ccc(O)cc1O` the Potency was inconclusive [inhibitor, single point].
For `COc1cccc(NC(=O)CCC(=O)N2CC(C)Oc3ccc(C)cc32)c1` (configuration not stated), the Potency was inconclusive [inhibitor, partial curve].
In the case of `Cc1ccc2nc(CSc3nnc(NC(=O)COc4ccccc4)s3)cc(=O)n2c1`, the “activity change, negative = growth inhibition” value is reported as inactive: 0.773%.
For `COC(=O)c1cc2sc(Cl)cc2n1CC(=O)NCCC(C)C`, the “activity change, negative = growth inhibition” value was inactive: -12.9%.
With `CC1CN(C(=S)NC(=O)c2ccc(Cl)cc2)CC(C)O1` (configuration not stated) the Potency was inconclusive [inhibitor, single point].
With `O=C1N=C(N2CCCCC2)S/C1=C\c1ccc(Br)cc1` the Potency was inconclusive [inhibitor, single point].
With `O=C(COc1ccccc1F)N/N=C1\CCCc2ccccc21` the Potency was inconclusive [inhibitor, single point].
For `O=S(=O)(NCCSc1nc2ccccc2o1)c1ccccc1`, the Potency was active: 16.4 µM.
For `COc1ccc(CC(N)c2csc(NC(=O)C(c3ccccc3)c3ccccc3)n2)cc1` (configuration not stated), the Potency was active: 6.51 µM.
In the case of `CCN1CCN(C(=O)c2nn(C)c3c2CS(=O)(=O)c2ccccc2-3)CC1`, the “activity change, negative = growth inhibition” value is reported as inactive: 7.53%.
For `Cc1cc(C(=O)OCC(=O)N2CCN(C(=O)c3ccco3)CC2)c(C)n1-c1ccc(F)cc1`, the activity change, negative = growth inhibition was inconclusive: -35.6% [inhibitor].
With `Cc1ccc(NC(=O)C2CCCN(c3nnc(-n4c(C)ccc4C)s3)C2)cc1Cl` (configuration not stated) the Potency was active: 20.6 µM.
For `COc1ccc(-c2cc(C(F)(F)F)nc(SCC(=O)NCCc3ccc(OC)c(OC)c3)n2)cc1`, the Potency was active: 20.6 µM.
For `Cc1onc(-c2ccccc2)c1C(=O)NC(=S)NNC(=O)c1ccncc1`, the Potency was inconclusive [inhibitor, single point].
For `O=C(NC1(C(F)(F)F)C(=O)Nc2c1c(=O)[nH]c(=O)n2-c1ccccc1)c1cccnc1` (configuration not stated), the “activity change, negative = growth inhibition” value was inactive: 3%.
With `COc1ccccc1Cc1c(-c2ccccc2)nc2cc(C)c(Br)c(C)n12` the Potency was inconclusive [inhibitor, partial curve].
For `Cc1nnc(NC(=O)CN2C(=O)NC3(CCCC3)C2=O)s1`, the “activity change, negative = growth inhibition” value was inactive: 4.84%.
In the case of `Cc1ccc(C(O)c2ncc(-c3cccc(C(F)(F)F)c3)[nH]2)c(C)c1` (configuration not stated), the Potency is reported as inconclusive [inhibitor, single point].
For `Cc1nc2cc(NC(=O)C3(C)CCCN(C(C)C)C3)ccc2o1` (configuration not stated), the “activity change, negative = growth inhibition” value was inactive: 0.191%.
With `Cc1cnc(NCCc2ccccc2)s1` the Potency was inconclusive [inhibitor, single point].
In the case of `Cn1c(CN2CCCCC2)nc2cc(NS(=O)(=O)c3ccc(F)cc3)ccc21`, the Potency is reported as inconclusive [inhibitor, partial curve, poor fit].
In the case of `COc1ccc(CNC(=O)C[C@H]2C[C@H](C(=O)N3CCOCC3)[C@@]3(CCC4CCCC4)c4[nH]c5cc(-c6ccco6)ccc5c4CCN3C2=O)cc1OC`, the Potency is reported as inconclusive [inhibitor, single point].
In the case of `CCn1cc(C(=O)O)c(=O)c2cc(F)c(N3CCN(C(=S)NC(=O)c4c(OC)cccc4OC)CC3)cc21`, the Potency is reported as active: 25.9 µM.
With `N=c1c2c(-c3ccccc3)c(-c3ccccc3)n(Cc3ccco3)c2ncn1Cc1ccco1` the Potency was active: 6.51 µM.
For `CCOc1ccc2nc(S(=O)(=O)NC(=O)C3(C)CCN3C(=O)c3cc(C)n(C)n3)sc2c1` (configuration not stated), the “activity change, negative = growth inhibition” value was inactive: 3.96%.
For `COc1ccc(C(=O)Nc2cc(S(=O)(=O)N3CCCC3)ccc2Cl)cc1`, the Potency was inconclusive [inhibitor, single point].
In the case of `CN(C)S(=O)(=O)c1ccc2c(c1)C(CC(=O)O)NC2=O` (configuration not stated), the “activity change, negative = growth inhibition” value is reported as inactive: -1.03%.
For `Cc1ccc(C(CC(=O)Nc2cc(C)cc(C)c2)N2Cc3ccccc3C2=O)cc1` (configuration not stated), the Potency was active: 23.1 µM.
With `O=c1c(O)c(-c2ccccc2)oc2cccc(O)c12` the Potency was inconclusive [inhibitor, single point].
In the case of `Cc1noc(C)c1CN1C(=O)c2ccccc2C1=O`, the “activity change, negative = growth inhibition” value is reported as inactive: 10.9%.
For `CC(=O)c1ccc(OCCCC(=O)NC2CCC(C)CC2)cc1` (configuration not stated), the Potency was inconclusive [inhibitor, partial curve].
For `O=C(COc1ccc(Br)cc1Cl)N1CCN(c2ccccn2)CC1`, the “activity change, negative = growth inhibition” value was inactive: -7.43%.
In the case of `Cc1ccccc1CN1c2ccccc2-c2nc(SCC(=O)NCCc3ccccc3)ncc2S1(=O)=O`, the Potency is reported as inconclusive [inhibitor, single point].
With `CCNC(=S)Nn1cnc2ccccc21` the “activity change, negative = growth inhibition” value was inactive: -0.104%.
For `CCN(CC)c1ccc(-n2nc3cc(C)c(NC(=O)c4ccccc4F)cc3n2)cc1`, the Potency was inconclusive [inhibitor, partial curve, poor fit].
In the case of `CCN1CCN(CCC(=O)Nc2cc(OC)cc(OC)c2)CC1`, the “activity change, negative = growth inhibition” value is reported as inactive: -2.47%.
For `O=C(CC1SCCNC1=O)Nc1cccc([N+](=O)[O-])c1` (configuration not stated), the “activity change, negative = growth inhibition” value was inactive: -4.41%.
With `COc1ccc(C(=O)NCC(c2cccnc2)N2CCN(c3ccccc3OC)CC2)cc1OC` (configuration not stated) the Potency was inconclusive [inhibitor, partial curve].
With `O=C(Nc1cccs1)Nc1ccccc1Cl` the Potency was inconclusive [inhibitor, partial curve, poor fit].
In the case of `O=C(/C=C/c1ccc(N2CCOCC2)cc1)c1ccccc1`, the Potency is reported as inconclusive [inhibitor, single point].
In the case of `Cc1nn(-c2ccccc2)c(N2CCCC2)c1/C=N/NC(=S)Nc1ccccc1F`, the Potency is reported as inconclusive [inhibitor, single point].
For `C/C(CC(=O)Nc1ccc(Cl)c(C(F)(F)F)c1)=N\NC(=O)c1ccccc1O`, the Potency was inconclusive [inhibitor, single point].
With `CCS(=O)(=O)NCC(c1ccco1)N1CCN(c2ccc(OC)cc2)CC1` (configuration not stated) the “activity change, negative = growth inhibition” value was inactive: 17.1%.
With `O=C(c1ccco1)N1CCN(CCCCOc2cccc3ccccc23)CC1` the Potency was inconclusive [inhibitor, single point].
For `C[C@@H]1CN([C@H](C)CO)C(=O)Cc2cc(NC(=O)CCC(F)(F)F)ccc2O[C@@H]1CN(C)S(=O)(=O)c1ccccc1`, the Potency was inconclusive [inhibitor, single point].
In the case of `Cn1c(=O)c2c(ncn2Cc2cccc(Cl)c2)n(C)c1=O`, the Potency is reported as inconclusive [inhibitor, partial curve].
In the case of `O=C(CSc1nnc(C2CCCCC2)n1Cc1ccccc1)NCc1ccco1`, the Potency is reported as active: 16.4 µM.
In the case of `CC(C)c1ccc(NC(=O)c2ccc(NC(=O)CCS(=O)(=O)c3cccs3)cc2)cc1`, the “activity change, negative = growth inhibition” value is reported as inactive: -23.5%.
With `NS(=O)(=O)c1ccc(CCNC(=O)c2cccc(S(=O)(=O)N3CCc4ccccc43)c2)cc1` the Potency was inconclusive [inhibitor, single point].
In the case of `Cc1ccccc1-n1nc(C)c2cc(C(=O)N3CCOCC3)sc21`, the Potency is reported as inconclusive [inhibitor, partial curve].
With `O=C(Cn1cc(C(=O)C(=O)N2CCOCC2)c2ccccc21)Nc1cccc(C(F)(F)F)c1` the Potency was inconclusive [inhibitor, single point].
With `CCOC(=O)c1ccccc1N1C(=O)CSC1=S` the Potency was inconclusive [inhibitor, single point].
For `CCc1sc(C(=O)Nc2ccc3c(c2)OCO3)cc1C`, the Potency was inconclusive [inhibitor, single point].
With `Cc1nc(CC(=O)NCC2Cc3cc(F)cc(-c4ccc(F)c(C)c4)c3O2)cs1` (configuration not stated) the Potency was active: 13 µM.
With `CC(C)N(Cc1cc2ccccc2[nH]c1=O)C(=O)c1ccco1` the “activity change, negative = growth inhibition” value was inactive: -2.72%.
In the case of `CCN1CCN(c2cc(C)c3cc(NC(=S)NCCN(C)C)ccc3n2)CC1`, the Potency is reported as active: 20.6 µM.
In the case of `O=C(C1CCC1)N1CCN(S(=O)(=O)c2ccc([N+](=O)[O-])cc2)CC1`, the “activity change, negative = growth inhibition” value is reported as inactive: 3.7%.
In the case of `Cc1ccc(F)cc1-c1nc(NCC2CC2)nc2ccsc12`, the Potency is reported as inconclusive [inhibitor, single point].
With `CC(C)(C)Nc1nc(SCC(=O)Nc2ccccc2)nc(N2CCOCC2)n1` the Potency was active: 23.1 µM.
With `Cc1ccc(-n2ncc3c(NCCCc4ccccc4)ncnc32)cc1C` the Potency was inconclusive [inhibitor, single point].
For `O=C(NCC1(c2ccccc2)CCCC1)c1ccccc1Br`, the Potency was inconclusive [inhibitor, single point].
In the case of `Cc1ccc(S(=O)(=O)N/N=C/c2cc([N+](=O)[O-])ccc2O)cc1[N+](=O)[O-]`, the “activity change, negative = growth inhibition” value is reported as inactive: 5.32%.
For `Cc1csc(NC(=O)Cc2coc3cc(C)c(C(C)C)cc23)n1`, the Potency was active: 16.4 µM.
With `CCn1c(C2CC(=O)N(c3cc(C)cc(C)c3)C2)nc2ccccc21` (configuration not stated) the Potency was inconclusive [inhibitor, single point].
In the case of `Cc1ccc(Nc2ncc3c(n2)CC(C)(C)CC3=O)cc1`, the Potency is reported as inconclusive [inhibitor, partial curve, poor fit].
With `COCC1CCN(Cc2cn(-c3ccccc3F)nc2-c2cc(C)sc2C)CC1` the Potency was inconclusive [inhibitor, single point].
In the case of `COc1ccccc1N1CCN(C(=O)c2oc3ccc(Br)cc3c2C)CC1`, the Potency is reported as active: 7.31 µM.
For `COC(=O)c1cc2occc2n1Cc1ccc(Cl)cc1`, the Potency was inconclusive [inhibitor, single point].
In the case of `O=c1ccc(Oc2nc(N3CCCCC3)nc(N3CCCCC3)n2)n[nH]1`, the “activity change, negative = growth inhibition” value is reported as inactive: 1.25%.
For `CCCCOc1ccc(C(=O)OCC(=O)N2CCCCCC2)cc1`, the Potency was inconclusive [inhibitor, partial curve, poor fit].
